The text below walks through data of ChEMBL document CHEMBL1961873, “Compounds: GSK PKIS; Assays: Nanosyn kinase panel” (2012).

Assay [1] addresses T1, Tyrosine-protein kinase ITK/TSK (Homo sapiens) (UniProt Q08881).
T1 sequence (whole entry): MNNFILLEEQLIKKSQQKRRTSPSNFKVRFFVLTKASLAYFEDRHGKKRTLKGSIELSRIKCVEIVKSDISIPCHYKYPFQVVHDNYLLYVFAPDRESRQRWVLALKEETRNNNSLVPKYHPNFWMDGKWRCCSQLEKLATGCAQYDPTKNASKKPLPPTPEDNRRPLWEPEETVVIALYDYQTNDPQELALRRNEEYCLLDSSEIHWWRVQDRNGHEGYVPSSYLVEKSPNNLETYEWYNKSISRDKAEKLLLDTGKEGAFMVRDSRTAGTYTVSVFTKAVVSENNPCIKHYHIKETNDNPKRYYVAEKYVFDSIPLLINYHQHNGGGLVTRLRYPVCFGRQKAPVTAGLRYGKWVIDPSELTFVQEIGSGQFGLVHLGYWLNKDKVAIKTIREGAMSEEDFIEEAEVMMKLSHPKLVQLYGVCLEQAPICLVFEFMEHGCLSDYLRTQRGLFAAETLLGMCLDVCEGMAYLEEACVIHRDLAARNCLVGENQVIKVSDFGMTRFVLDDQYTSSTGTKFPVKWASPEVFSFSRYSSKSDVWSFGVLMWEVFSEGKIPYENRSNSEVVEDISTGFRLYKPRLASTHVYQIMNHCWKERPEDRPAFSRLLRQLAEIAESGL
As to conditions: at 1 µM.

For assay [2], the target named is Tyrosine-protein kinase JAK1 (Homo sapiens) (UniProt P23458). The conditions noted are these: at 0.1 µM.
The target is the same in assay [3]. The conditions noted are these: at 1 µM.
Assay [4] deals with Tyrosine-protein kinase JAK2 (Homo sapiens) (UniProt O60674). The conditions noted are these: at 0.1 µM.
Assay [5] shares this target. As to conditions: at 1 µM.
The target in assay [6] is T2, Tyrosine-protein kinase JAK3 (Homo sapiens) (UniProt P52333).
T2 sequence (whole entry): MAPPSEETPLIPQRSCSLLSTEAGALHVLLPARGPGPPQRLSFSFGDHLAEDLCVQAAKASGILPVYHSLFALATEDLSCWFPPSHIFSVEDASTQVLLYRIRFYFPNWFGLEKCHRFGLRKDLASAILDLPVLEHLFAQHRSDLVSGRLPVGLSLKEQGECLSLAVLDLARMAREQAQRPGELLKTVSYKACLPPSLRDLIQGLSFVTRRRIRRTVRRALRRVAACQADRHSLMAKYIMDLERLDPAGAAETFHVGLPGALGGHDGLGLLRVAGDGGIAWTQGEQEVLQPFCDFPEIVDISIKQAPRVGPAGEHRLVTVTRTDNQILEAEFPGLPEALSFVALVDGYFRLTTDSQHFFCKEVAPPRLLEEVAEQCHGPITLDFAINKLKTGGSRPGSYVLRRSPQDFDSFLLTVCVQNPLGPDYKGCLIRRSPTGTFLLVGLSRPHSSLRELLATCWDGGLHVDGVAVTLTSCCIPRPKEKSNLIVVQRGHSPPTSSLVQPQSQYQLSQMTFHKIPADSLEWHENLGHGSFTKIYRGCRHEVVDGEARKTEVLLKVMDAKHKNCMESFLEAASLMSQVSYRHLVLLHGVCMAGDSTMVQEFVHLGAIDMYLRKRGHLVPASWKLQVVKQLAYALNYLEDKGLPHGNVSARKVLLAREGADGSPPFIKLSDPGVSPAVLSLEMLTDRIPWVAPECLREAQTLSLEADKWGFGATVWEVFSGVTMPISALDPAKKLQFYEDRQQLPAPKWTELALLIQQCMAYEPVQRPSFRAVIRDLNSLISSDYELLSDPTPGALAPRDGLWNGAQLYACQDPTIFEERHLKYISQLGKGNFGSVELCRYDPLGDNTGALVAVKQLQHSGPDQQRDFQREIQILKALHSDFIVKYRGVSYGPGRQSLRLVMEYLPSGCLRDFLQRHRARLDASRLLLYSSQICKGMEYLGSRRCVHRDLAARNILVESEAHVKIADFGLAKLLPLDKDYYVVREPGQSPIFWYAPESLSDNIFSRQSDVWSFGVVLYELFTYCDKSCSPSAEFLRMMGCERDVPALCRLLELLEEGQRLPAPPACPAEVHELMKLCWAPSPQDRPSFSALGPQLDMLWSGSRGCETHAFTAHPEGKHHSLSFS
The conditions noted are these: at 0.1 µM.

Assay [7] addresses T2, Tyrosine-protein kinase JAK3 (Homo sapiens). The conditions noted are these: at 1 µM.
Assay [8] deals with Vascular endothelial growth factor receptor 2 (Homo sapiens) (UniProt P35968). The conditions noted are these: at 0.1 µM.
Assay [9] shares this target. The conditions noted are these: at 1 µM.
For assay [10], the target named is Mast/stem cell growth factor receptor Kit (Homo sapiens) (UniProt P10721). As to conditions: at 0.1 µM.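 Note: values are mean inhibition of KIT, from the GSK PKIS dataset.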

For some assays here: The strong results were mostly taken out for another list; the other results follow. The entries are a selection whose mix differs from that of the whole data set.

Chain of UniProt P35968 (P35968 whole entry): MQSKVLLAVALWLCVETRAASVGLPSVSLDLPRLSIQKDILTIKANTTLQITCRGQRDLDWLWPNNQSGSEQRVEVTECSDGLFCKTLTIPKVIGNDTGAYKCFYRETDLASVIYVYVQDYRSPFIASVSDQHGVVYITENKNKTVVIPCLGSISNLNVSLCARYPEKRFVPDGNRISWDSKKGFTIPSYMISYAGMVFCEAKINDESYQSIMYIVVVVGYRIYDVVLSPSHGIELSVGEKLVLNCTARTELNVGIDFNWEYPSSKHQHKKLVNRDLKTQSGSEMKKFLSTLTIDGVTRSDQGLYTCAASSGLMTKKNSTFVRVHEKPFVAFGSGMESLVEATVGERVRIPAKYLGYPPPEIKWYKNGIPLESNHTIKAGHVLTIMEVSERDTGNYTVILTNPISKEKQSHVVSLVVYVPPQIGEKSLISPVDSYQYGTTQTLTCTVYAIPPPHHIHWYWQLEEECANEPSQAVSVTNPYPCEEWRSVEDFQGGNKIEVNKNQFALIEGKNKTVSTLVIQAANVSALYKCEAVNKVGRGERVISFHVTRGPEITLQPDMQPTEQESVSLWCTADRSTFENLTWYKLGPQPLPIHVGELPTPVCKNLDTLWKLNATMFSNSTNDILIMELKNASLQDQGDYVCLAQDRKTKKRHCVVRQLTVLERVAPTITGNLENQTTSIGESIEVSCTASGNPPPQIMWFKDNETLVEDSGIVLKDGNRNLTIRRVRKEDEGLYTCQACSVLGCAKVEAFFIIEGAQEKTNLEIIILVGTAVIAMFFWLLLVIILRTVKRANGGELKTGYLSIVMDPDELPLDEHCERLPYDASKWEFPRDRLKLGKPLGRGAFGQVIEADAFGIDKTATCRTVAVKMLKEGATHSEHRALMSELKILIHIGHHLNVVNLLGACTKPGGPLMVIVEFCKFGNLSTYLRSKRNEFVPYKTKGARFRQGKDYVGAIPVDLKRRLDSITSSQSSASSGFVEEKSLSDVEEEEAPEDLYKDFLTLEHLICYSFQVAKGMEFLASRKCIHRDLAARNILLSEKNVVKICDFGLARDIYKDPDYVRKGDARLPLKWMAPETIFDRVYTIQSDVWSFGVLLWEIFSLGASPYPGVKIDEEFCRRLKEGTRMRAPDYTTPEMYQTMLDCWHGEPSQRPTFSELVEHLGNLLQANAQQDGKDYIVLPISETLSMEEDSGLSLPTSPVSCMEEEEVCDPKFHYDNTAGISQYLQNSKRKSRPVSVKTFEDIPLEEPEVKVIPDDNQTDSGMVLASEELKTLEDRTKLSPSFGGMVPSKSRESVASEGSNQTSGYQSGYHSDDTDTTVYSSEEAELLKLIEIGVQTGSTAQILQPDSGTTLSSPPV
Chain of UniProt O60674 (O60674 whole entry): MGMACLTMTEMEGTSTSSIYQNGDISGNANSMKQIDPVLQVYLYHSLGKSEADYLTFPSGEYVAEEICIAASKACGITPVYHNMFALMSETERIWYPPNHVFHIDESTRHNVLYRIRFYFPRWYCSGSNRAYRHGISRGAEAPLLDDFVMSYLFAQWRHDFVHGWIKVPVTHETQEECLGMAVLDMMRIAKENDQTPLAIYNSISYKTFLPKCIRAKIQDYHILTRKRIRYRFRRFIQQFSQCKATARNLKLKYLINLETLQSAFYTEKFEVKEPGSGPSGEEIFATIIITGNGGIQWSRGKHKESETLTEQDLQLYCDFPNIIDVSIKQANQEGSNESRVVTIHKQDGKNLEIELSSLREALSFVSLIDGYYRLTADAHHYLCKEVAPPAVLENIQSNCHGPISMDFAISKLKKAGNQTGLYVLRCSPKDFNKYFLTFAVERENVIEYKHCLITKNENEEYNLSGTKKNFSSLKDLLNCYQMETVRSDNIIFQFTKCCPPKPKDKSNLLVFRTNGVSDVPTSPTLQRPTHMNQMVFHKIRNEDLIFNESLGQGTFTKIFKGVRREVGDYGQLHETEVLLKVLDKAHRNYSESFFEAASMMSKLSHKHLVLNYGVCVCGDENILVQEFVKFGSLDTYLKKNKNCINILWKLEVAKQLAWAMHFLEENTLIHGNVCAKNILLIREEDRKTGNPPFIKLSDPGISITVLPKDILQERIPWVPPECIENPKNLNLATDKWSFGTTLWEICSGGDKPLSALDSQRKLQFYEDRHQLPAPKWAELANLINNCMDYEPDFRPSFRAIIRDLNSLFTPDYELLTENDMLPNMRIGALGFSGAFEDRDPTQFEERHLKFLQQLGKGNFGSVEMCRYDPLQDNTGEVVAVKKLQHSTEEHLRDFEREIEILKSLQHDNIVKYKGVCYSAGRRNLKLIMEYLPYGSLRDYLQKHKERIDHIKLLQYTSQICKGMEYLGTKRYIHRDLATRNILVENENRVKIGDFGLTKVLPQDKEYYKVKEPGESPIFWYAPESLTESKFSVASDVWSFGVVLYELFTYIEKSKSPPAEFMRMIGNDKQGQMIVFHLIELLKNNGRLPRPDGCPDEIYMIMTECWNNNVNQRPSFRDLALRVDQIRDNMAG
Chain of UniProt P23458 (P23458 whole entry): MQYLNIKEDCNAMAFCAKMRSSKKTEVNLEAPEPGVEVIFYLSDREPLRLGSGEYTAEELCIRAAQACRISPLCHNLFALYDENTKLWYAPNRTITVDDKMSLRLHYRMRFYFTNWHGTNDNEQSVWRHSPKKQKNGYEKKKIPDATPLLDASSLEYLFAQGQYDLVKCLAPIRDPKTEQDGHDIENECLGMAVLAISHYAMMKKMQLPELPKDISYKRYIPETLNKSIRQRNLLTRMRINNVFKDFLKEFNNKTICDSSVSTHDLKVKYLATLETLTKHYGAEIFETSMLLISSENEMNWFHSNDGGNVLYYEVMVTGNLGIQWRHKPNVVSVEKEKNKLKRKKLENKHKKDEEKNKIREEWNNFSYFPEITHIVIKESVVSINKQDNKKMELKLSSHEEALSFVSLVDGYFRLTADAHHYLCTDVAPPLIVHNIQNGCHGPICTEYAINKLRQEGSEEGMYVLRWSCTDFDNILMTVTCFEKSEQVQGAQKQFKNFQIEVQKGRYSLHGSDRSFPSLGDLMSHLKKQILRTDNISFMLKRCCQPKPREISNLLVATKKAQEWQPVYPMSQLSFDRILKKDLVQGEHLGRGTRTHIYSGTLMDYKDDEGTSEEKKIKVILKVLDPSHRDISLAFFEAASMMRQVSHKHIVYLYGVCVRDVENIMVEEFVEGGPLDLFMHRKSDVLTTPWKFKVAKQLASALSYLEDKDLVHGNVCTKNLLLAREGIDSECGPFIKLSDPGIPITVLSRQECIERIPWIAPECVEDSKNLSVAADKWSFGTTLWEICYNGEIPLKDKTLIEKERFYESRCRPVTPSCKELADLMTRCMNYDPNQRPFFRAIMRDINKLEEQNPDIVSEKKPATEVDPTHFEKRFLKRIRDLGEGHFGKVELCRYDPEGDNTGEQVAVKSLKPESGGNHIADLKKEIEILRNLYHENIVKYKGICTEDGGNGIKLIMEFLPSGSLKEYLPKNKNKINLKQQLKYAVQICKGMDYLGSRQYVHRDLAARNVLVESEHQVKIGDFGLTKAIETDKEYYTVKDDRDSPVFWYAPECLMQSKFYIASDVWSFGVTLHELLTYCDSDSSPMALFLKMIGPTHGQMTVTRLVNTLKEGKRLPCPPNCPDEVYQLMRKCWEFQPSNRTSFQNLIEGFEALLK
Chain of UniProt P10721 (P10721 whole entry): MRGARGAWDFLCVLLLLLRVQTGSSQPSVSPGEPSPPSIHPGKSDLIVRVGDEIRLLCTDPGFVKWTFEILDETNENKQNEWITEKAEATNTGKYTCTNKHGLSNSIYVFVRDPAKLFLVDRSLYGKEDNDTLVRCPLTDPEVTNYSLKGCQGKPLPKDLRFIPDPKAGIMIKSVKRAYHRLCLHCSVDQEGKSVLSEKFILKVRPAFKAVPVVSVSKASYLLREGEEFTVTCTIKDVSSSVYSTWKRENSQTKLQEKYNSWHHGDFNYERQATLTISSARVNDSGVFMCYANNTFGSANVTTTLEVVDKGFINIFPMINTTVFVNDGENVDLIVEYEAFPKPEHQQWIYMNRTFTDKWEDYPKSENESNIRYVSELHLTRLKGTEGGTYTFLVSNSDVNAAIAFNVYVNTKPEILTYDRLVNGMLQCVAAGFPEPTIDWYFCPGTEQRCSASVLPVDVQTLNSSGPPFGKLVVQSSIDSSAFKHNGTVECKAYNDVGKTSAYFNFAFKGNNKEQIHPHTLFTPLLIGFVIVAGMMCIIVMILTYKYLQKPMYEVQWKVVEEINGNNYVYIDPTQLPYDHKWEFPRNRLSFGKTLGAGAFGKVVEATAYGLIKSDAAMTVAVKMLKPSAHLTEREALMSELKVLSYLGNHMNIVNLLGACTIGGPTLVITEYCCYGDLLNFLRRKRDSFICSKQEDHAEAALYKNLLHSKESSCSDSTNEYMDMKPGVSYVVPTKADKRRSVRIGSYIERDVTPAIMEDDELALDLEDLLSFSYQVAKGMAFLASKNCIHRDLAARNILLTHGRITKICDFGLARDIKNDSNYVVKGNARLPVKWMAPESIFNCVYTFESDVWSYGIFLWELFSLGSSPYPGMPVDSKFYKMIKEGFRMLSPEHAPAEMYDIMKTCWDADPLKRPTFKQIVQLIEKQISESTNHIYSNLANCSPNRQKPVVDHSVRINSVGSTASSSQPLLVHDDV

For the compound `Fc1ccc(-c2ncn(C3CCNCC3)c2-c2ccnc(Oc3ccc(Cl)cc3)n2)cc1`, the inhibition in assay [1] was 1.14%; in [2], 1.44%; in [3] it was 0.39%; in [4], -1.11%; in assay [5] it was -1.29%; in [6] it was 0.38%. Besides, the inhibition in assay [7] was -0.37%; in assay [8] it was 0.83%; in [9] it was 2%; in assay [10], 1.07%.

As to `O=C(O)c1ccc(Oc2nccc(-c3c(-c4ccc(F)cc4)ncn3C3CCNCC3)n2)cc1`, the inhibition in assay [1] came out at 1.53%; in assay [2], 1.98%; in [3] it was 2.33%; in [4], 3.17%; in assay [5], 3.34%; in assay [6], 0.39%. In addition, the inhibition is -1.13% in assay [7], 3.05% in assay [8], 9% in [9] and 1.57% in assay [10].

On to `O=C1NC(=O)C(c2ccccc2Cl)=C1Nc1cc(Cl)c(O)c(Cl)c1`, for which the inhibition in [1] was 2.36%; in assay [2] it was 3.67%; in assay [3], 10.6%; in assay [4], 0.42%; in assay [5], 2.34%; in assay [6], -1.06%. Besides, the inhibition in assay [7] was 10.1%; in assay [8] it was 4.32%; in assay [9], 7.66%; in [10], 26.8%.

For `O=C1NC(=O)C(c2cccc([N+](=O)[O-])c2)=C1Nc1cc(Cl)c(O)c(Cl)c1`, the inhibition in assay [1] was 0.8%; in assay [2], 0.71%; in assay [3], 4.63%; in assay [4], 0.39%; in assay [5], -0.7%; in [6], -2.64%. The inhibition in assay [7] was 24.5%; in [8], 1.21%; in assay [9] it was 8.59%; in assay [10] it was 0.51%.

In the case of `O=C1NC(=O)C(c2ccccc2)=C1Nc1ccccc1`, the inhibition was 1.4% in assay [1]; 4.68% in assay [2]; 9.57% in assay [3]; 2.18% in assay [4]; 4.49% in [5]; -0.46% in [6]. Further, the inhibition in assay [7] was 11.6%; in assay [8], 13.8%; in [9], 27.9%; in assay [10], 7.27%.

In the case of `CS(=O)(=O)c1ccc(Oc2nccc(-c3c(-c4ccc(F)cc4)ncn3C3CCNCC3)n2)cc1`, the inhibition is 0.88% in assay [1]; 2.94% in [2]; 4.57% in [3]; 1.37% in [4]; 0.12% in [5]; -3.03% in assay [6]. The inhibition in [7] was -2.29%; in [8], 0.99%; in [9], 3.33%; in assay [10], 7.07%.

With `Fc1ccc(Oc2nccc(-c3c(-c4ccc(F)cc4)ncn3C3CCNCC3)n2)cc1`, the inhibition in assay [1] was -2.45%; in assay [2], 0.32%; in [3] it was -0.55%; in assay [4] it was 2.11%; in [5], 3.3%; in assay [6], -3.84%. Also, the inhibition in assay [7] is -5.11%; in [8] it was 5.89%; in [9], 12.3%; in assay [10], 3.19%.

For `CC(C)(C)c1ccc(Oc2nccc(-c3c(-c4ccc(F)cc4)ncn3C3CCNCC3)n2)cc1`, the inhibition was 0.57% in assay [1]; 3.07% in assay [2]; 4.69% in assay [3]; 2% in [4]; 1.52% in assay [5]; -3.07% in assay [6]. The inhibition is -0.98% in [7], 4.43% in [8], 6.6% in [9] and 5.57% in assay [10].

Consider `NC(=O)CCc1ccccc1Oc1nccc(-c2c(-c3ccc(F)cc3)ncn2C2CCNCC2)n1`, for which the inhibition is -0.59% in [1]; -4.59% in [2]; -4.73% in assay [3]; -1% in [4]; -1.75% in assay [5]; -0.4% in assay [6]. The inhibition is -0.32% in [7], -0.88% in assay [8], -0.22% in assay [9] and -3.53% in [10].

`Fc1ccc(-c2ncn(C3CCNCC3)c2-c2ccnc(Oc3cccc(F)c3)n2)cc1`: the inhibition in [1] is 2.15%; in [2], 0.83%; in assay [3] it was 2.69%; in [4], 2.8%; in assay [5], 2.65%; in assay [6] it was -1.47%. The inhibition is -1.15% in assay [7], 9.47% in assay [8], 16% in [9] and 6.84% in [10].

Consider `COc1ccccc1C1=C(Nc2ccccc2)C(=O)NC1=O`, for which the inhibition in assay [1] was determined as 1.95%; in [2], 4.32%; in assay [3], 19.1%; in assay [4], 1.08%; in [5], 2.77%; in [6], 6.12%. The inhibition in assay [7] was determined as 53.9%; in [8] it was 6.75%; in assay [9], 21.1%; in assay [10] it was 4.07%.

For the compound `Fc1ccc(-c2ncn(C3CCNCC3)c2-c2ccnc(Oc3cccc(C(F)(F)F)c3)n2)cc1`, the inhibition in assay [1] is 2.14%; in assay [2], 7.56%; in assay [3], 7.58%; in assay [4] it was 1.58%; in [5] it was 0.05%; in [6], -4.57%. Besides, the inhibition was 2.36% in [7], 5.75% in [8], 7.38% in assay [9] and 6.51% in assay [10].

Regarding `COc1ccccc1Oc1nccc(-c2c(-c3ccc(F)cc3)ncn2C2CCNCC2)n1`, the inhibition in [1] was 3.06%; in [2], 3.67%; in assay [3] it was 6.54%; in [4], 0.87%; in assay [5], 1.24%; in assay [6] it was -1.33%. Besides, the inhibition stood at 4.46% in assay [7], 6.68% in assay [8], 9.89% in assay [9] and 5.27% in [10].

Turning to `Cc1cccc(Oc2nccc(-c3c(-c4ccc(F)cc4)ncn3C3CCNCC3)n2)c1C`, the inhibition in [1] is 1.92%; in assay [2], 3.42%; in [3] it was 4.81%; in assay [4], 1.92%; in [5], 0.38%; in [6] it was -2.52%. The inhibition in assay [7] was -0.16%; in [8], 1.49%; in assay [9], 6.62%; in [10], 5.92%.
